# The list shows a part of the results.
# B1: chr16:31060842:31061067:-|three_prime_utr|ENSG00000167394|control|control|control (ssRNA)
# RNA: GGGAGUUCUACAGUCCGACGAUCCCGGGAGCCCAGCCCCCAUCGGGGGCUUCCUGUACCUCCUUUUGCCUGGCUCUGCUCUUUAGACUCCAGAUCCCUACCCCUCAGCAACUAGCUCCCCUGUCGGCCAGCUAAGAGAGCUGGCAACAGAGGAUUGAGCAUCA
# B2: chr5:93620789:93620892:-|3pUTR|ENSG00000113391|unk|FALSE|unique (ssRNA)
# RNA: GGGAGUUCUACAGUCCGACGAUCCAGCCCCUCAUUAGAUUGUUUUCUUCCCAGAGCCCAGGGUCGUGAUAUAUACAUCUAAAUAGCGUUUUGCAUUAUUUCUAGAUGAGUGCAACUGUCAAAGCAAUAUGGGUUCACUGGUCGCAACAGAGGAUUGAGCAUCA
# B3: chr11:61866713:61866887:+|3pUTR|ENSG00000134824|msi1|FALSE|unique (ssRNA)
# RNA: GGGAGUUCUACAGUCCGACGAUCCUCUCCUGUCUGAACCUGCCCUUACUGUGUUUAACCUGUUGCUCCAGGAUGCAUUCUGAUAGGAGGGGGCGGCAGGGCUGGGCCUUGUGACAAUCUGCCUUUCACCACAUGGCCUUGCCUCAACAGAGGAUUGAGCAUCA
# B4: chr10:15076158:15076259:-|3pUTR|ENSG00000176244|unk|FALSE|unique (ssRNA)
# RNA: GGGAGUUCUACAGUCCGACGAUCAGAUCCCUUAAGAUAAAUAUCCCCCAAAACAGUGUACCUCUAUUCCCUGCAUAAAAAUUUAGAUUUGGAAUGGUAUGACCAGAGGAAUAGAUCCACUUCAUGUUACUACAACAACAAAACCAACAGAGGAUUGAGCAUCA
# B5: chr18:9859767:9859850:+|3pUTR|ENSG00000168461|msi1_unk|FALSE|overlapping (ssRNA)
# RNA: GGGAGUUCUACAGUCCGACGAUCUUGUUACCUAACCAACCUUCACUGAAAGGCAAAUUUAGUUCAGGAGGUUAGUUUUUAGCUAGCUUUGGAAGUAAGCCUUUAUUUAUUACUUUUUGGAGGAAAUCAGAGAAGUGUCAAUGGCAACAGAGGAUUGAGCAUCA
# B6: chr17:41586309:41586834:-|CDS|ENSG00000186847|control|control|control (ssRNA)
# RNA: GGGAGUUCUACAGUCCGACGAUCGCCUGCGGGCUGGGGGGCGGCUAUGGCGGUGGCUUCAGCAGCAGCAGCAGCAGCUUUGGUAGUGGCUUUGGGGGAGGAUAUGGUGGUGGCCUUGGUGCUGGCUUGGGUGGUGGCUUUGGUCAACAGAGGAUUGAGCAUCA
# B7: chrX:72139229:72139330:+|CDS|ENSG00000204131|unk|total|mutant (ssRNA)
# RNA: GGGAGUUCUACAGUCCGACGAUCUCCCUCCGUGCCCAGCAAGAGGCCCAGCACAGAAGGCAGAGGUCCAAGAGUAUCUCACUCCGGAAGGCCAAAAAGAAGCCUUCCCCACCCACACGCAGUGUCUCACUGGUCAAAGAUGAGCAACAGAGGAUUGAGCAUCA
# B8: chr8:93922960:93923061:+|CDS|ENSG00000164951|msi1|FALSE|unique (ssRNA)
# RNA: GGGAGUUCUACAGUCCGACGAUCCGGCUCAUGGUCAGCAGUCACGCUGUCUAAUGACCACAAUGCUCAAAAUGAAAGAGAACUAGAACGGCUGAAAUUGGAACAUCCAAAGAGUGAGGCCAAGAGUGUCGUGAAACAGGAUCGCAACAGAGGAUUGAGCAUCA
# B9: chr9:16436428:16436529:-|CDS|ENSG00000173068|msi1|total|mutant (ssRNA)
# RNA: GGGAGUUCUACAGUCCGACGAUCCUCCCCCGCCAGCCCGUAUUUUCUGGGCUAAAGACUGUACAACCAGUUCCUCCAUUUUACCGAAGUUUACUCACUCCAGGGGAAAUGGUGAGUCCUCCAACCUCCCUCCCAACCAGUCCCCAACAGAGGAUUGAGCAUCA
# B10: chr1:52238154:52238269:+|CDS|ENSG00000157077|unk|FALSE|unique (ssRNA)
# RNA: GGGAGUUCUACAGUCCGACGAUCUCUGAUAGUCUAGCCAGUGUCUGUUCCCCUUCACAAUUAAAGGAUGACGGAAGUAUAGGUAGAGACCCCUCCAUGUCUGCGAUUACAAGUUUAACGGUUGAUUCAGUAAUCUCAUCCCAGCAACAGAGGAUUGAGCAUCA
# B11: chr10:78035461:78035635:+|CDS|ENSG00000138326|unk|FALSE|unique (ssRNA)
# RNA: GGGAGUUCUACAGUCCGACGAUCCAUUGAUGUCCUUCACCCCGGGAAGGCGACAGUGCCUAAGACAGAAAUUCGGGAAAAACUAGCCAAAAUGUACAAGACCACACCGGAUGUCAUCUUUGUAUUUGGAUUCAGAACUCAUUUCAACAGAGGAUUGAGCAUCA
# B12: ENSG00000070961:be:win_1751|CDS|ENSG00000070961|bound_else_gene|NA|bound_elsewhere_windowed (ssRNA)
# RNA: GGGAGUUCUACAGUCCGACGAUCCCAUGAGUACUGUCCUGAAAAAUUCAGAUGGAAGUUAUCGAAUAUUCAGCAAGGGUGCAUCUGAGAUAAUUCUGAAAAAGUGUUUCAAAAUCUUGAGUGCUAAUGGUGAGGCAAAAGUAUCAACAGAGGAUUGAGCAUCA
# B13: chr1:205810550:205810651:-|5pUTR|ENSG00000133065|unk|FALSE|bound_elsewhere (ssRNA)
# RNA: GGGAGUUCUACAGUCCGACGAUCUUGCGGCUUCAGUGCUUGAUGGGGCUGCCUGUUGGUGGAUCAGUUUUUGCAGUGCCUGGUAGGAGUGGAGAGCCGUGGGAAGAGGUCCUGCGGCGCCCAAGCCUGGGUUCACCCCAAGACCAACAGAGGAUUGAGCAUCA
# B14: chr7:95294748:95294849:+|3pUTR|ENSG00000158528|msi1|FALSE|bound_elsewhere (ssRNA)
# RNA: GGGAGUUCUACAGUCCGACGAUCGAGAAAGCCGACAGAAUCAGCUUCUCCUGGAAAGUGAAAGCAUCAAGUUCUAUUUAUGGUAGACAGAGGGUCCUUAUUUGCUUGUCCGUGGUGUCUAUGUGGGCCUAUUGAGGGAAUGGUCAACAGAGGAUUGAGCAUCA
# B15: chr10:86890108:86890218:+|CDS|ENSG00000107779|unk|total|mutant (ssRNA)
# RNA: GGGAGUUCUACAGUCCGACGAUCUCAUGGCACUGGGAUGAAAUCAGACUCCGACCAGAAAAAGUCAGAAAAUGGAGUAACCUCCGCACCAGAGGAUACCUUGCCUUUUUUAAAGUGCUAUUGCUCAGGGCACUGUCCAGAUGACAACAGAGGAUUGAGCAUCA
# B16: ENSG00000070961:be:win_5601|3pUTR|ENSG00000070961|bound_else_gene|NA|bound_elsewhere_windowed (ssRNA)
# RNA: GGGAGUUCUACAGUCCGACGAUCGAGGUAGCAUGAUAUGCUGGAAAGCAUAUUAGACUAGGAGUCAAGACCUGGUUUCUAGUCUUGGUUUUGCCAUUAAUGUGCUGCAUGAUCUUGGGAAAAUCAUUUACCCUAAAUAAGGGUCAACAGAGGAUUGAGCAUCA
# B17: chr1:226632358:226632459:-|3pUTR|ENSG00000143772|msi1|total|mutant (ssRNA)
# RNA: GGGAGUUCUACAGUCCGACGAUCUCAAGCCAUUUUGCCACUCGCUUCCCUGCCAUCUGGCCCUUCCCUUUGUCUCAGUGGGACCGAUGGAUUGUGAAAUGGAAUCUCCCAGAACCCCUGCCCUGGCAGCCUGGAAGACCGUGCCAACAGAGGAUUGAGCAUCA
# B18: chr1:186359875:186359976:-|CDS|ENSG00000047410|msi1_unk|FALSE|overlapping (ssRNA)
# RNA: GGGAGUUCUACAGUCCGACGAUCGGAAACUCAGGAUCAGUUGCUUUUGGAGAAACUAGAGAACAAAAGAAUUAAUAAGUACCUAGAUGAAAUAGUGAAAGAAGUGGAAGCCAAAGCACCAAUUUUGAAACGCCAGCGUGAGGACAACAGAGGAUUGAGCAUCA
# B19: chr20:63196482:63196583:-|3pUTR|ENSG00000149658|msi1|total|mutant (ssRNA)
# RNA: GGGAGUUCUACAGUCCGACGAUCUGAUUUUUGCCCAGAUGGAUCUGCAUUUAUUUGUACUUUUUCUAUGUAUUAUAAUCCUGCCGAAGUCACUAAUAAAGGAGUAUUUUUUUUGUCAGCUUAUCAAUCAGACUGAUCUAAUGUCAACAGAGGAUUGAGCAUCA
# B20: chr6:157944353:157944454:+|3pUTR|ENSG00000130340|unk|FALSE|unique (ssRNA)
# RNA: GGGAGUUCUACAGUCCGACGAUCAGUAAUUCUCCCCACUUGAUUUUUCUUCUAUAAAAUCCCAUAGAACAAUGUUUAUGCUAUAGCCAUUUAAUAUAUGUACAAAUUGUAAAGAAUAUGUAUAAAUGUUUUACACGAAUGUAACAACAGAGGAUUGAGCAUCA
# B21: chrX:30828625:30828726:-|3pUTR|ENSG00000157625|msi1|FALSE|bound_elsewhere (ssRNA)
# RNA: GGGAGUUCUACAGUCCGACGAUCUUCUUGUUUCUUGUAAGAGGUUUCUUUAAAAUGACUAGUUUGAUGUAUCUGGUAACAUAUAGGCCUGACUAUACAUUUUACAUUAUUUCGCUAUUUUGUAAACUGGGAUUUUAGAAAGCACAACAGAGGAUUGAGCAUCA
# B22: chr19:41259979:41260080:+|3pUTR|ENSG00000167601|msi1|total|mutant (ssRNA)
# RNA: GGGAGUUCUACAGUCCGACGAUCCCUGUCUUCCUACCUAUCCCACCUCCAUCCCAGACAGGUCCCUCCCCUUCUCUGUGCAGCCGCAUCACCUUGAAAGCAGCCGCAUCACCAUCUGUAAAAGGAAGGGGUUGGAUUGCAAUACAACAGAGGAUUGAGCAUCA
# Biological target: MSI1 full-length (mouse, UniProt Q61474 1-362)
# Test: nsRBNS (natural sequence RNA bind-n-seq); RBNS binding buffer (assumed for nsRBNS): 25 mM Tris pH 7.5, 150 mM KCl, 3 mM MgCl2, 0.01% Triton X-100, 500 ug/ml BSA, 20 U/ml SUPERase-In, 4 C; UNK is unkempt and MSI1 is Musashi-1; names of the RNAs are library labels; protein concentration not given here; high values mean tight binding
# Sequence of UniProt Q61474 (Q61474 whole entry): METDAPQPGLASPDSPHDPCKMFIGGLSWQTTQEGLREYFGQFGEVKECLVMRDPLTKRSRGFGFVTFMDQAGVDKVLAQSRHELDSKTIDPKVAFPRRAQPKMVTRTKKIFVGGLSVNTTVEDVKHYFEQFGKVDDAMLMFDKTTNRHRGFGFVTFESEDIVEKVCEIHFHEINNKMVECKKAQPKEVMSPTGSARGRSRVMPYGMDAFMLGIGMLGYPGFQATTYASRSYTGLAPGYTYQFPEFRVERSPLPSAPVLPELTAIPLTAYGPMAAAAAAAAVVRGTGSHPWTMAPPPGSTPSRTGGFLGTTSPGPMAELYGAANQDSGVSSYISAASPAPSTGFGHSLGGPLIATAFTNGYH
row,Binder,binding signal
1,B1,0.691 enrichment R
2,B2,1.17 enrichment R
3,B3,0.45 enrichment R
4,B4,2.52 enrichment R
5,B5,1.95 enrichment R
6,B6,0.768 enrichment R
7,B7,0.452 enrichment R
8,B8,0.399 enrichment R
9,B9,0.834 enrichment R
10,B10,1.47 enrichment R
11,B11,0.567 enrichment R
12,B12,0.27 enrichment R
13,B13,0.396 enrichment R
14,B14,0.482 enrichment R
15,B15,0.287 enrichment R
16,B16,0.263 enrichment R
17,B17,1.14 enrichment R
18,B18,9.6 enrichment R
19,B19,0.79 enrichment R
20,B20,3.06 enrichment R
21,B21,0.868 enrichment R
22,B22,0.602 enrichment R
